Each structure is given as a SMILES string. Hit rate of the full screen: of about 340,000 compounds, about 6,900 (2%) were called active. Cut-off read from the data, not from the text of the source: active = inhibition above about 30%; inactive = below that, where a call was filed. This is a selection; strong and weak results do not stand in their true shares. The source gives no active or inactive call for entries shown without one. Where a structure was tested more than once in an assay, its records may differ in their call.

In this assay the target is D(2) dopamine receptor (Homo sapiens) (UniProt P14416). The assay is described as follows: HTS Assay for Allosteric Antagonists of the Human D2 Dopamine Receptor: Primary Screen for Antagonists. Note: 0% is about no effect. The settings on record: HEK293 TREx D2 cells, calcium flux, dopamine EC80; at 10 µM; stronger effect = higher value. Put shortly: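 Antagonism is scored as inhibition of an EC80 dopamine-evoked calcium signal in a force-coupled, tetracycline-inducible HEK293 T-REx D2 line, with compound present 180 s before agonist.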
Chain of UniProt P14416 (P14416 whole entry, looked up): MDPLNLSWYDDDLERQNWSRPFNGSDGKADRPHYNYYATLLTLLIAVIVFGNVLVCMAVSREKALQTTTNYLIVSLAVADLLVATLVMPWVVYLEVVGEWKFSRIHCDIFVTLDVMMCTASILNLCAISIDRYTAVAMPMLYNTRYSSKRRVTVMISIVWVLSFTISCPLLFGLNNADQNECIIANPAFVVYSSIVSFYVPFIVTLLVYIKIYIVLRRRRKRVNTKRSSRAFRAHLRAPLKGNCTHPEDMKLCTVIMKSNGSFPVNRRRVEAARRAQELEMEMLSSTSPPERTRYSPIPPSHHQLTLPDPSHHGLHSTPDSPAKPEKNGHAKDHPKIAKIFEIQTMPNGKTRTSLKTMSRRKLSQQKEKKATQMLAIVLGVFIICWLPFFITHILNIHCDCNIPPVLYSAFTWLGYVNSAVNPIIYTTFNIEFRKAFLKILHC
For orientation: Calcium flux is commonly read through the fluorescence of an indicator in the cells.
Take `Nc1[nH]nc2ncc3cc4ccccc4nc3c12`: the inhibition was active: 59.5%.

On to `COc1ccc(NC(=O)c2ccco2)cc1NC(=O)COc1ccc(Cl)c(C)c1`, for which the inhibition is 12.4%.

Regarding `CC1CCCC(C)N1C(=O)Cn1cc(/C=C2/C(=O)Nc3ccccc32)c2ccccc21` (stereo not given), the inhibition was active: 32.3%.

Regarding `CN(C)c1ccc(-c2nc(-c3ccco3)no2)cc1[N+](=O)[O-]`, the inhibition is -13.2%.

As for `CCN(CC)S(=O)(=O)c1ccc2c(c1)N(CC(=O)N1CCN(c3cccc(OC)c3)CC1)C(=O)CO2`, the inhibition was -1.58%.

On to `Cc1c(Nc2nc3ccccc3n3c(C)nnc23)cccc1C(=O)O`, for which the inhibition is -9.98%.

As for `Cc1ccc(Cl)cc1-n1ncc2c(NCCCc3ccccc3)ncnc21`, the inhibition was 7.55%.

With `CCc1nonc1NC(=O)c1oc2ccc(C)cc2c1C`, the inhibition was -3.02%.

Take `CCCn1c(SCC(=O)NCc2ccco2)nnc1C(C)C`: the inhibition was active: 46.5%.

For the molecule `CCOc1ccc(N2C(=O)c3n[nH]c(-c4cccs4)c3C2c2cccc(F)c2)cc1` (stereo not given), the inhibition was -11%.

Regarding `COc1ccc(-c2cc(-c3ccc4c(c3)NC(=O)CO4)nc3c2COc2ccc(F)cc2-3)cc1`, the inhibition stood at 1.43%.

For the molecule `CCOC(=O)c1ccc(-n2c(-c3ccc(C)cc3)c(C)n3c4c(=O)n(C)c(=O)n(C)c4nc23)cc1`, the inhibition was 4.65%.

Take `Cc1nc2oc3ccccc3c(=O)c2c(=O)n1Cc1ccccc1`: the inhibition is active: 31.1%.

For the molecule `O=C(C1CC1)N1CCc2cc(Br)cc(S(=O)(=O)N3CCN(c4ccccn4)CC3)c21`, the inhibition is active: 46.4%.

As for `CCOC(=O)CSc1nc2cc3c(cc2c(=O)n1CCCC(=O)NCCc1ccc(OC)c(OC)c1)OCO3`, the inhibition is -9.79%.

`CCOC(=O)c1sc(N2C(=O)c3oc4ccc(C)cc4c(=O)c3C2c2ccccc2F)nc1C` (stereo not given): the inhibition was -3.5%.

In the case of `CCc1cccc(NS(=O)(=O)c2ccc3c(c2)n(C)c(=O)c(=O)n3C)c1`, the inhibition was -1.79%.

Regarding `Cc1ccc(CNC(=O)CCCn2nc(C)c3c(C)n(-c4ccccc4)nc3c2=O)cc1`, the inhibition was -14.2%.

As to `CCOC(=O)c1c(NC(=O)CSc2cn(CCNC(=O)c3ccc(OC)c(OC)c3)c3ccccc23)sc2c1CCCC2`, the inhibition was determined as 13.5%.

For `CCCN(C(=O)c1cc2c(=O)oc3ccccc3c2s1)c1cccc(Cl)c1`, the inhibition came out at 9.15%.

Turning to `CCOC(=O)N1CCN(C(=O)CN(c2cccc(Cl)c2)S(=O)(=O)c2ccccc2)CC1`, the inhibition is -0.737%.

For the molecule `CCCc1cc(=O)n2[nH]c(NC(=O)c3ccccc3Cl)nc2n1`, the inhibition came out at 11.4%.

Turning to `CCOC(=O)c1ccc(N2C(=O)c3[nH]nc(-c4ccc(OC)cc4)c3C2c2ccccc2Cl)cc1` (stereo not given), the inhibition worked out at 13.7%.

Regarding `Cc1ccc(NC(=O)N2CCc3cc(S(=O)(=O)N4CCC(C)CC4)ccc32)cc1F`, the inhibition worked out at 1.84%.

`COc1ccc(C2c3c(n(C)c4ccccc34)C(=O)N2CC(=O)Nc2cc(Cl)ccc2C)cc1` (stereo not given): the inhibition is 1.27%.

Turning to `O=C(Nc1ccccc1)N(Cc1cccs1)c1ccc(F)cc1`, the inhibition is -18.5%.

Regarding `COC(=O)c1ccc(NC(=O)CC2Nc3cc(C)c(C)cc3NC2=O)cc1` (stereo not given), the inhibition is -9.77%.

As for `Cc1cc(C)n(-c2nc3ccccc3nc2Nc2ccc(Cl)c(Cl)c2)n1`, the inhibition is 8.52%.

Consider `COc1ccccc1NCc1cccn1-c1nnc(N2CCCCCC2)s1`, for which the inhibition is -6.96%.

On to `Cc1cc(C)cc(OCC(=O)NC(Cc2c[nH]c3ccccc23)C(=O)O)c1` (stereo not given), for which the inhibition was 20.6%.

`CCOc1ccc(S(=O)(=O)Nc2ccc3oc(C)c(C(=O)OC(C)C)c3c2)cc1`: the inhibition amounted to 17.9%.

On to `Cc1cccc(OCC(=O)Nc2c(C(=O)N3CCN(c4ccccc4F)CC3)oc3ccccc23)c1`, for which the inhibition is 0.756%.

Regarding `CCCCC(=O)OCc1cc(=O)n2nc(C3CCCCC3)sc2n1`, the inhibition stood at 14.6%.

Take `CCC1CN(C(=O)Nc2cc(C)ccc2OC)c2cc(Cl)ccc2O1` (stereo not given): the inhibition is 0.872%.

With `Cc1ccc(NC(=O)CSc2ccc3nnc(CCNS(=O)(=O)c4ccccc4)n3n2)cc1Cl`, the inhibition is 5.94%.

In the case of `O=C(Nc1ccccc1)Nc1nc2ccccc2s1`, the inhibition is active: 38.1%.

On to `Cc1ccc(Cl)cc1NC(=O)N1CCC(CN2CCCCCC2)CC1`, for which the inhibition amounted to 3.56%.

Turning to `COc1ccccc1N1CCN(C(=O)c2ccoc2C)CC1`, the inhibition was active: 35%.

As for `Cc1ccc2cc(CN(C)C(=O)c3cccc(Cl)c3)c(=O)[nH]c2c1`, the inhibition amounted to 6.21%.

Turning to `Cc1ccccc1NC(=O)c1cccc2c(=O)c3c([nH]c12)CCCC3`, the inhibition is -2.18%.

Take `COc1cc(C(=O)NC2CC3CCCC(C2)N3Cc2ccccc2)cc(OC)c1OC` (stereo not given): the inhibition was active: 83.7%.

With `CCCCNc1nc2c(c(=O)n(C)c(=O)n2C)n1CC(O)COc1ccccc1C` (stereo not given), the inhibition is -2.49%.

Regarding `O=C(Nc1ccc(F)c(Cl)c1)C1CCN(S(=O)(=O)c2ccc3[nH]c(=O)ccc3c2)CC1`, the inhibition is -18.6%.

In the case of `O=C(COc1ccc(Br)cc1F)NC1CCN(Cc2ccccc2)CC1`, the inhibition is active: 52.9%.

Consider `CCOC(=O)c1c(NC(=O)c2ccc(Br)cc2)sc2c1CCCC2`, for which the inhibition came out at 6.85%.

On to `COc1cccc(N2CCN(Cc3nc(N)nc(N4CCCc5ccccc54)n3)CC2)c1`, for which the inhibition is active: 58.9%.

As for `O=C(O)c1cccc(Nc2ncnc3ccc(Br)cc23)c1`, the inhibition is 16.4%.

`Cc1nn(C)c2c1c(C(F)(F)F)cc(=O)n2CC(=O)N1CCCCC1`: the inhibition was 8.01%.

Consider `Cc1ccc(C(=O)Nc2nc3n(n2)C(c2ccc(F)cc2)C=C(c2ccccc2)N3)cc1` (stereo not given), for which the inhibition is -8.93%.

For `CCOc1ccccc1-n1nnc(-c2nc(-c3ccccc3C)no2)c1C`, the inhibition was -8.76%.

Take `Cc1ccc2nc(-c3cccc(NC(=O)c4ccc(Br)o4)c3)oc2c1`: the inhibition is -0.718%.

As to `O=C(Cn1cc(C(=O)c2ccncc2)c(=O)c2cc(F)ccc21)Nc1ccc(Cl)cc1`, the inhibition is -25.9%.

As for `O=C1c2[nH]nc(-c3ccccc3O)c2C(c2cccc(O)c2)N1Cc1ccncc1` (stereo not given), the inhibition is 11.4%.

Consider `COCCCNC(=O)N1[C@H](c2cccs2)[C@@H](C)C(=O)[C@@H](C)[C@@H]1c1cccs1`, for which the inhibition was 20%.

Consider `O=C(CN1C(=O)COc2ccc(S(=O)(=O)N3CCCC3)cc21)N1CCN(c2ccc(Cl)cc2)CC1`, for which the inhibition was -1.53%.

For the molecule `O=C(NC1CC2CCCC(C1)N2Cc1ccccc1)c1cccc(F)c1` (stereo not given), the inhibition is active: 83.5%.

As for `Cc1ccc2c(c1)N(S(=O)(=O)c1cc(-c3onc(C)c3C)ccc1C)CCO2`, the inhibition was -7.35%.

`COc1cccc(-n2cc(C(=O)OCc3ccc(F)c(F)c3)c3ccccc3c2=O)c1`: the inhibition amounted to 6.45%.

Regarding `COc1ccccc1CNC(=O)CCn1c(=O)c2ccccc2n(CC(=O)Nc2ccc(Br)cc2F)c1=O`, the inhibition came to 3.09%.

`Cc1ccc(O)c(NC(=O)c2noc3c2CCCC3)c1`: the inhibition amounted to 14.5%.

Regarding `CCOCCn1ccc2c(OCC(=O)NCc3ccc(C)cc3)cccc2c1=O`, the inhibition was -0.337%.

Consider `CN(C)CCNC(=O)c1ccc2c(c1)N(Cc1ccccc1)C(=O)c1ccccc1S2(=O)=O`, for which the inhibition is 5.35%.

Regarding `CCCSc1ncc(Cl)c(C(=O)NCc2ccc(OC)cc2)n1`, the inhibition is -12.9%.

Regarding `COc1ccc(-c2cn3nc(N4CCCC(C(=O)Nc5cccc(Cl)c5C)C4)sc3n2)cc1` (stereo not given), the inhibition was -0.979%.

In the case of `COc1cccc(-c2cc(C(=O)Nc3cc(OC)c(OC)c(OC)c3)no2)c1`, the inhibition was active: 43.7%.

For the molecule `N#Cc1ccccc1NC(=O)C(=O)NCCc1csc2nc(-c3cccc(F)c3)nn12`, the inhibition came to 12.5%.

As to `COc1ccc(OC)c(CNC(=O)CN(c2ccc(C)cc2)S(=O)(=O)N(C)C)c1`, the inhibition was found to be 16.3%.

For `Cc1cccc(NC(=O)N2CCN(C)c3ncccc32)c1C`, the inhibition is -11.3%.

Turning to `CCOc1ccccc1CNC(=O)c1ccc(NC(=O)N2CC(C)Sc3ccccc32)cc1` (stereo not given), the inhibition was found to be 8.75%.

Regarding `O=C(NC1(C(F)(F)F)C(=O)Nc2c1c(=O)[nH]c(=O)n2-c1ccccc1)c1ccccc1` (stereo not given), the inhibition amounted to 2.89%.

For the molecule `CCOc1ccc(C(=O)NCc2nc3cccnc3n2Cc2cccc(OC)c2)cc1`, the inhibition is -11.1%.

On to `CCCN(CCC)C(=O)Cn1c(SCc2cccc(C(F)(F)F)c2)nc2cccnc21`, for which the inhibition was determined as 2.27%.

Take `O=C(Cn1c(=O)oc2cc(S(=O)(=O)N3CCCCCC3)ccc21)Nc1ccc(F)cc1F`: the inhibition is -3.62%.

For `O=C(Nc1cc2c(cc1C(=O)c1cccc(Br)c1)OCCO2)c1ccccc1F`, the inhibition was -7.61%.

As to `CCOC(=O)c1cc2c(=O)n3ccccc3nc2n(Cc2ccco2)c1=NC(=O)c1ccc(C)c(C)c1`, the inhibition was determined as 0.946%.

Take `CN(c1ccccc1)S(=O)(=O)c1nnc(NC(=O)COc2ccccc2)s1`: the inhibition stood at 22.4%.

For `CC1(C)S[C@@H]2[C@H](NC(=O)Cc3ccccc3)C(=O)N2[C@H]1C(=O)O`, the inhibition was active: 32.8%.

In the case of `Cc1ccc(-n2c(=O)c3ccc(C(=O)NCc4ccco4)cc3n(CC(=O)Nc3ccccc3C(F)(F)F)c2=O)cc1`, the inhibition is 12.1%.

`Cc1cc(C)cc(-n2c(C)cc(C(=O)C(=O)Nc3nnc(C)s3)c2C)c1`: the inhibition amounted to 20.7%.

As to `CN(C(=O)Cn1cnc2onc(-c3ccc(F)cc3)c2c1=O)c1ccccc1Cl`, the inhibition worked out at 4.99%.

As for `CCCN(C(=O)Cn1ncc2c1-c1ccccc1OC2)c1cccc(C)c1`, the inhibition is -0.0504%.

Regarding `CCc1ccc(-c2nc(SCC(=O)NCC3CCCO3)c(-c3ccc(C)cc3)[nH]2)cc1` (stereo not given), the inhibition was 20%.

`Cc1cccc(C)c1NC(=O)Cn1c(=O)n(CCCS(=O)(=O)C2CCCCC2)c(=O)c2ccccc21`: the inhibition is 13.4%.

For `Cc1cccc(N2CCN(c3ccc(C(=O)O)cc3NC(=O)c3cccc(Cl)c3)CC2C)c1` (stereo not given), the inhibition was -3.57%.

`CSCC[C@@H](C(=O)Nc1cccc(F)c1)N1Cc2ccccc2C1=O`: the inhibition was 9.66%.

In the case of `O=C(CSc1nccn1C1CCCC1)Nc1cccc(F)c1`, the inhibition is -15.4%.

In the case of `CCOC(=O)C1CCN(c2c(C(=O)c3ccc(OC)cc3)cnc3ccccc23)CC1`, the inhibition is 6.9%.

Turning to `COc1ccc(CCNC(=O)c2nc(SCc3ccccc3F)ncc2Cl)cc1OC`, the inhibition is -18.5%.

Regarding `CCOCCc1nn2c(=O)cc(COC(=O)Cc3ccccc3)nc2s1`, the inhibition was 4.12%.

On to `COc1ccc(NC2=CC(=O)CC(c3ccccc3)C2)c(OC)c1` (stereo not given), for which the inhibition was active: 31%.

As to `COc1ccc(CCNC(=O)[C@H](C)NC(=O)N2CCn3c2nc2ccccc23)cc1OC`, the inhibition was active: 37.2%.

Regarding `Cc1ccc(NC(=O)NC(=O)N(C(C)C)S(=O)(=O)c2ccc(C)cc2)cc1`, the inhibition is active: 43.5%.

On to `Cc1nn2c(=O)cc(COC(=O)c3ccc(NC(=O)c4cccc(Br)c4)cc3)nc2s1`, for which the inhibition was -5.23%.

With `COc1ccccc1NC(=O)CSc1nc(-c2ccc(C)cc2)nc2c1Cc1c(CO)cnc(C)c1O2`, the inhibition was determined as 10.6%.

For `COc1ccc(-c2cn3nc(N4CCCC(C(=O)Nc5ccccc5OC)C4)sc3n2)cc1` (stereo not given), the inhibition is 3.95%.

One may read the inhibition as the drop in the measured response relative to a control, in per cent.

The values are drawn from PubChem BioAssay AID485344 (National Center for Advancing Translational Sciences (NCATS), 2010).
